# Results: PubChem BioAssay AID504339 (National Center for Advancing Translational Sciences (NCATS), 2011)
# Out of some 390,000 compounds screened, about 17,000 (4.4%) were called active. The shares of active, inactive and inconclusive entries below differ from those in the screen. Calls come from the whole dose curve; as a rule, active = well fitted inhibition curve with a large enough effect; inconclusive = small, poorly fitted or top-dose-only effect; inactive = no such curve, though single readings can be large or run the other way. Where the call is inconclusive, the potency comes from a doubtful curve fit.
# Molecular target: Lysine-specific demethylase 4A (Homo sapiens) (UniProt O75164)
# Assay: qHTS Assay for Inhibitors of JMJD2A-Tudor Domain; note: nearly all actives have a fitted effect of over 50% in size
# Details: AlphaScreen JMJD2A-Tudor / H3K4me3 peptide binding; series mostly up to 114 µM
# Potency is the fitted concentration of half-maximal effect; tags give direction and shape of the fitted curve.
# Sequence of UniProt O75164 (O75164 whole entry, looked up, the tested form may be a part): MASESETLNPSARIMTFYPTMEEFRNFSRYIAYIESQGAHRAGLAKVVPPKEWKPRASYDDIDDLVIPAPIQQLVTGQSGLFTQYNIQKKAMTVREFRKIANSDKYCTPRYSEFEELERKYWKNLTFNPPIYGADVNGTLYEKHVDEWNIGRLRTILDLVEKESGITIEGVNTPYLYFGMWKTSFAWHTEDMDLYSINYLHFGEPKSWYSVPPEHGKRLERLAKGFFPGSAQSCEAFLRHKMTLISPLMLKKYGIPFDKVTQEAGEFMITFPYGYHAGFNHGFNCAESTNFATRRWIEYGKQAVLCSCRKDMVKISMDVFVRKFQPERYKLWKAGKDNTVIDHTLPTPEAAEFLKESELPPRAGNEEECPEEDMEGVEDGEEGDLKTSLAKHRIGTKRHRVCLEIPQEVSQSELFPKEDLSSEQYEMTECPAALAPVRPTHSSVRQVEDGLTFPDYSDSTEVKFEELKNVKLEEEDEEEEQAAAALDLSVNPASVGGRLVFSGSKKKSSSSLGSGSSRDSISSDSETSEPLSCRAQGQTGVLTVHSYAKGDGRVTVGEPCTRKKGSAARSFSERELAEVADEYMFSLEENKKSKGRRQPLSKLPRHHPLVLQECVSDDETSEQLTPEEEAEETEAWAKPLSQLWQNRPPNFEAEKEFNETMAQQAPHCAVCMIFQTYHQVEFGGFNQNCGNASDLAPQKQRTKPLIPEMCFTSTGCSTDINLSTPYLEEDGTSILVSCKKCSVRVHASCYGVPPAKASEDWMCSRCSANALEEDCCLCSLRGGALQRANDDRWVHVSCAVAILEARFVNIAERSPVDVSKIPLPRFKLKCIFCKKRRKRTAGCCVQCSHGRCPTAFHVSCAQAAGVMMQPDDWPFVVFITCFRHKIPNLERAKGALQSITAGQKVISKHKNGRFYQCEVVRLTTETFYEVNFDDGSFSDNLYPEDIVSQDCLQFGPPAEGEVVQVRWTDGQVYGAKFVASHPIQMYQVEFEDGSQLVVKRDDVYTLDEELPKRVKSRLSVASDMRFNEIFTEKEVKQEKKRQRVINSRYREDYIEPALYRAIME
row,Compound,Potency
1,CCn1c(CCn2ccnc2C)n[nH]c1=S,active: 22.4 µM
2,CCN(CCNCC(O)COc1ccccc1C(C)C)c1cccc(C)c1 (stereo not given),active: 0.794 µM
3,COc1ccc(CNc2nc(C)c([N+](=O)[O-])c(C)c2C#N)cc1,"inconclusive: 31.6 µM [inhibitor, partial curve]"
4,O=C(c1c(F)c(F)c(F)c(F)c1F)N1CCc2ccccc21,active: 56.2 µM
5,O=C(Nc1cccc(C(F)(F)F)c1)c1ccc(N2CCNCC2)c([N+](=O)[O-])c1,"inconclusive: 31.6 µM [inhibitor, full curve, poor fit]"
6,CC(C)(C)c1ccc(OCCC(=O)OCC(=O)Nc2ccc(N3CCOCC3)cc2)cc1,inactive
7,COc1ccc2oc(C(=O)NCc3cc(OC)c(OC)cc3OC)c(C)c2c1,active: 35.5 µM
8,CCOC(=O)C1=C(CN2CCN(c3cc(C)ccc3C)CC2)NC(=O)NC1c1ccccc1 (stereo not given),"inconclusive: 44.7 µM [inhibitor, partial curve]"
9,O=C(Cn1nc(Cl)nc1Cl)c1ccccc1,"inconclusive: 39.8 µM [inhibitor, single point]"
10,COc1ccccc1C(=O)NCCN1CCN(c2ccccc2)CC1,inactive
11,O=C(Cc1nn[nH]n1)Nc1ccc(F)cc1F,"inconclusive: 35.5 µM [inhibitor, partial curve]"
12,O=S(=O)(NCc1ccccc1Cl)c1cccs1,inactive
13,COc1ccc(Cl)cc1S(=O)(=O)n1c([N+](=O)[O-])cnc1C,inactive
14,Clc1ccc(CN2CCCCCC2)cc1,active: 1.78 µM
15,COc1ccc(N2CCN(c3nc4c(C)cccn4c(=O)c3/C=C(\C#N)C(N)=O)CC2)cc1,"inconclusive: 39.8 µM [inhibitor, partial curve]"
16,COc1cccc(-c2cc(C(F)(F)F)c(C#N)c(=O)[nH]2)c1,"inconclusive: 31.6 µM [inhibitor, single point]"
17,Clc1ccc(C2=C3CCCCn4c(-c5ccccc5)c[n+](c43)C2)cc1,"inconclusive: 15.8 µM [inhibitor, partial curve]"
18,Cc1ccc(NC(=O)CN(C)CC(=O)Nc2cccc(F)c2)cc1S(=O)(=O)N1CCCCCC1,active: 17.8 µM
19,Cc1cc(Nc2cc(Cl)ccc2C)n2nc(Cc3ccccc3)nc2n1,inactive
20,CN(C)c1ccc(CNc2nc(-c3ccccc3)nn2S(C)(=O)=O)cc1,active: 56.2 µM
21,O=[N+]([O-])c1ccccc1N/N=C\c1ccccc1F,"inconclusive: 7.94 µM [inhibitor, full curve, poor fit]"
22,CCOc1ccc(CCN2C(=S)N([C@@H](CC(C)C)CN3CCCC3CN3C(=S)NC[C@@H]3CC(C)C)C[C@@H]2Cc2ccc(O)cc2)cc1 (stereo not given in full),"inconclusive: 39.8 µM [inhibitor, partial curve]"
23,O=C(OCC1OC(n2ccc(=O)[nH]c2=O)C2OC12)c1ccccc1 (stereo not given),inactive

row,Compound,Potency
1,CCCn1c(O)c(/C=C2\C=NN=C2c2ccccc2)sc1=S,"inconclusive: 11.2 µM [inhibitor, full curve, poor fit]"
2,CCOC1=C/C(=C/c2c(N)n3nc(CC(=O)N4CCCC4)sc3nc2=O)C=CC1=O,inactive
3,COc1ccc(-c2cn(-c3ccc(OC)cc3)c(=S)[nH]2)cc1,"inconclusive: 8.91 µM [inhibitor, full curve, poor fit]"
4,CCc1ccc(S(=O)(=O)c2cn(C)c3cc(OC)c(OC)cc3c2=O)cc1,"inconclusive: 56.2 µM [inhibitor, partial curve]"
5,CCOc1ccccc1CN1CCC(n2nccc2NC(=O)C2CCCC2)CC1,"inconclusive: 56.2 µM [inhibitor, partial curve, poor fit]"
6,O=C(NCc1cc(C(F)(F)F)ccc1Cl)c1cccc2c1C(=O)c1ccc(N3CCOCC3)cc1S2(=O)=O,"inconclusive: 1.26 µM [inhibitor, full curve]"
7,O=C(Nc1ccc(N2CCCC2)cc1)c1cccc(Cl)c1Cl,"inconclusive: 11.2 µM [inhibitor, partial curve, poor fit]"
8,C#CCOCCOCCOCCNc1nc(N2CCN(C(=O)[C@H]([C@@H](C)O)n3cc(CCCCN)nn3)CC2)nc(N2CCN(C(=O)[C@H](Cc3ccc(O)cc3)n3cc(CCO)nn3)CC2)n1,"inconclusive: 89.1 µM [inhibitor, partial curve]"
9,COC(=O)c1scc(C)c1NC(=O)c1ccccc1F,inactive
10,COc1ccccc1-n1c(CNC(=O)c2ccc(S(=O)(=O)N3CCOCC3)cc2)n[nH]c1=S,active: 20 µM
11,COc1ccc(OC)c(-c2csc(NC(=O)Cc3ccccc3F)n2)c1,"inconclusive: 56.2 µM [inhibitor, partial curve, poor fit]"
12,Fc1ccc(C2=CC(c3ccc(Br)o3)n3ncnc3N2)cc1 (stereo not given),active: 31.6 µM
13,CCNc1nc(CN2CCOCC2)nc2sc3c(c12)CCC3,inactive
14,O=C(C1CC1)N1CCN(c2ccc(O)cc2)CC1,active: 79.4 µM
15,COc1ccc(S(=O)(=O)C(C#N)c2nc3ccccc3nc2N2CCCCC2)cc1 (stereo not given),"inconclusive: 89.1 µM [inhibitor, partial curve, poor fit]"
16,S=C(NCCc1ccccc1)Nc1nccs1,"inconclusive: 70.8 µM [inhibitor, partial curve]"
17,COc1ccc(C(=O)NNC(=S)NC(=O)c2cc(-c3ccccc3)nc3ccccc23)cc1,"inconclusive: 39.8 µM [inhibitor, partial curve]"
18,CON/C=C(\C=Nc1ccccc1)c1ncc(C(F)(F)F)cc1Cl,"inconclusive: 50.1 µM [inhibitor, partial curve, poor fit]"
19,CCN(CC)c1ccc2nc3c4ccccc4c(=O)cc-3oc2c1,"inconclusive: 3.55 µM [inhibitor, full curve, poor fit]"
20,Cc1cc(NC(=O)CSc2nnc(C)n2-c2ccccc2C)no1,inactive
21,CN(C)N1C(N)=C(C#N)C(c2cccs2)C2=C1CC(C)(C)CC2=O (stereo not given),"inconclusive: 35.5 µM [inhibitor, partial curve]"
22,Nc1c(C(=O)Nc2ccccc2)sc2nc(-c3ccco3)ccc12,inactive
